Hit rate of the full screen: of about 230,000 compounds, about 1,500 (0.65%) were called active. The inconclusive results got no clear call from the source; some entries with a clear call stand among them for comparison. Calls follow the shape of the dose curve; as a rule, active = well fitted inhibition curve with a large enough effect; inconclusive = small, poorly fitted or top-dose-only effect; inactive = no such curve, though single readings can be large or run the other way. A potency beside an inconclusive call is a rough fit, not a confirmed value.
Target: Lethal(3)malignant brain tumor-like protein 1 (Homo sapiens) (UniProt Q9Y468)
Assay: qHTS Assay for the Inhibitors of L3MBTL1; also: nearly all actives have a fitted effect of over 60% in size
Settings: AlphaScreen L3MBTL1–H3K9me1 peptide binding; series mostly up to 57.1 µM
Outline: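 First, the protein-peptide complex forms for 30 min at room temperature (L3MBTL1 50 nM, biotinylated H3K9me1 peptide 75 nM). Next, compounds are pin-transferred and incubated 30 min. Finally, AlphaScreen beads are added and read after 30 min.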
Potency is read from the fitted curve at half-maximal effect; tags tell the direction and shape of the fitted curve.

Sequence of UniProt Q9Y468 (Q9Y468 whole entry, looked up): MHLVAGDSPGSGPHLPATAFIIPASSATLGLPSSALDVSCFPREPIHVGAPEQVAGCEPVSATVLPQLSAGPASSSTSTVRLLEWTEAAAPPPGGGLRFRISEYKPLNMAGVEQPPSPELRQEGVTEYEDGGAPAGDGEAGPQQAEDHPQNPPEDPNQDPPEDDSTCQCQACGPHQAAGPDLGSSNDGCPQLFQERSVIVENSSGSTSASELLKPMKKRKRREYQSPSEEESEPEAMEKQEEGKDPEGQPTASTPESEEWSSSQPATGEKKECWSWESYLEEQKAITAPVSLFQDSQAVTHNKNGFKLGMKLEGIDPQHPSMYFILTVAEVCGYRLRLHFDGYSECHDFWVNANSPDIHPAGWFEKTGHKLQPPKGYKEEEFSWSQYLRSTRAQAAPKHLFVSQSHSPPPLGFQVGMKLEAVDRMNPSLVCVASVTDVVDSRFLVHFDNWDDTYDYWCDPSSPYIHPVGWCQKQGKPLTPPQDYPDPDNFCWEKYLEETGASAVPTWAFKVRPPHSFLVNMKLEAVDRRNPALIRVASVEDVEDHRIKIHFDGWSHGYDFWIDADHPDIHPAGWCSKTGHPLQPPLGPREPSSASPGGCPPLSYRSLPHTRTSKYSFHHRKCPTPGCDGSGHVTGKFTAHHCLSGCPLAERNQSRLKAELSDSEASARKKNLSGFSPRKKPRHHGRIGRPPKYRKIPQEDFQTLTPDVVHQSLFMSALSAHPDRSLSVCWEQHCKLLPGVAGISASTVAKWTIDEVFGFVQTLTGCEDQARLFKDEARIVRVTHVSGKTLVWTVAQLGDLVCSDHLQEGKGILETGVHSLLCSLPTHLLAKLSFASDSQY

Compound | Potency
O=C(NCCCn1ccnc1)C(F)(F)C(F)(F)C(=O)NCCCn1ccnc1 | inconclusive: 3.55 µM [inhibitor, single point]
COCc1cc(N2CCOCC2)nc(SCc2ccc(Cl)cc2)n1 | inconclusive: 0.708 µM [inhibitor, full curve]
COc1ccc(NC(=S)Nc2ccc3snnc3c2)cc1 | inactive
Cc1ccc(C)c(NC(=O)COc2coc(CN3CCc4ccccc43)cc2=O)c1 | inconclusive: 22.4 µM [inhibitor, partial curve]
Cc1ccc(-n2c(Cc3cccn3C)nnc2SCC(=O)NCc2ccco2)cc1 | inconclusive: 28.2 µM [inhibitor, single point]
Cn1c(N=Nc2ccccc2)nc2ccccc21 | inconclusive: 39.8 µM [inhibitor, single point]
Cc1ccc(C(=O)NC(C(=O)NC2CCCC2)c2ccccc2)cc1 (stereo unspecified) | inactive
CN(C)c1ccc(N/C=C/C(=O)c2ccccc2)cc1 | inconclusive: 17.8 µM [inhibitor, partial curve]
CCOC(=O)Cn1c(S(=O)(=O)Cc2ccccc2)nc2ccccc21 | inactive
COc1cccc(C(=O)Nc2ccc(NC(C)=O)cn2)c1 | inactive
Cc1cccc(-c2nnnn2-c2cccc(C)c2)c1 | inconclusive: 44.7 µM [inhibitor, partial curve, poor fit]
Cc1cc(C)c(S(=O)(=O)/N=C2/C=C(Sc3ncn[nH]3)C(=O)c3ccccc32)cc1C | inconclusive: 17.8 µM [inhibitor, partial curve]
NC(=O)Cc1c[nH]c2cccc(O)c12 | inactive
O=[N+]([O-])c1cc(CN2CCCC2)ccc1Sc1ccc(Cl)cc1 | inconclusive: 15.8 µM [inhibitor, partial curve]
CC1CN(S(=O)(=O)c2cccc(-c3cn4ccccc4n3)c2)CC(C)O1 (stereo unspecified) | inconclusive: 39.8 µM [inhibitor, partial curve, poor fit]
c1ccc(CNc2ccc3c(c2)ncn3C2CCCCC2)nc1 | inconclusive: 22.4 µM [inhibitor, partial curve]
CCc1nnc(NS(=O)(=O)c2ccc(N/C=C\C(=O)c3ccc4ccccc4c3)cc2)s1 | inactive
Cn1nc(CC(=O)NC2CCCCC2)c2ccccc2c1=O | inconclusive: 3.98 µM [inhibitor, single point]
COc1ccccc1C(=O)COC(=O)/C(=C/c1ccccc1)NC(C)=O | inconclusive: 7.08 µM [inhibitor, single point]
CCOc1ccc(NC(=S)N2c3ccccc3CC2C)cc1 (stereo unspecified) | inconclusive: 3.16 µM [inhibitor, partial curve]
COc1ccc(N/N=C(/C(C)=O)N2CCCc3ccccc32)cc1 | inactive
CCOC(=O)c1c(N2C(=O)C3C4C=CC(C4)C3C2=O)sc2c1CCC(C)C2 (stereo unspecified) | inconclusive: 6.31 µM [inhibitor, single point]
Oc1ccc(CN2CCCc3ccccc32)c2cccnc12 | active: 28.2 µM
C=CCNCCCCOc1ccc(C)cc1[N+](=O)[O-] | inactive

Compound | Potency
CCOc1ccc(-n2c(Cc3cc(=O)[nH]c(=O)[nH]3)nnc2SC(C)C)cc1 | inactive
O=C1CN(C(=O)CNCc2ccccc2)c2ccccc2N1 | inactive
CC1=CN2C(=N)/C(=C/c3ccc([N+](=O)[O-])o3)C(=O)N=C2S1 | active: 35.5 µM
O=C(O)c1cccc(Cn2c(Cl)c(/C=N/NC(=O)c3ccccc3)sc2=O)c1 | inactive
CCOC(=O)C(NC(=O)CC)(Nc1sc2c(c1C(=O)OC)CCN(C)C2)C(F)(F)F (stereo unspecified) | inconclusive: 35.5 µM [inhibitor, single point]
O=C(O)c1cc(-c2ccc(/C=N/N3C(=O)C4C5C=CC(C6CC56)C4C3=O)o2)ccc1Cl (stereo unspecified) | inconclusive: 35.5 µM [inhibitor, single point]
O=C(COc1ncnc2ccccc12)NC1CCCCC1 | inconclusive: 1.41 µM [inhibitor, single point]
Cc1ccc(N2CCN(C(=S)c3ccc(N(C)C)cc3)CC2)cc1 | inconclusive: 39.8 µM [inhibitor, single point]
O=C(COC(=O)CNC(=O)c1cccc(Br)c1)Nc1nnc(-c2ccccc2)o1 | inactive
COc1ccccc1C1=NNC(=Nc2cccc(S(=O)(=O)N(C)C)c2)SC1 | inconclusive: 2.82 µM [inhibitor, full curve]
O=C(CSc1nnc(-c2ccc(OC(F)F)cc2)o1)NC(=O)NCc1ccco1 | inconclusive: 28.2 µM [inhibitor, single point]
CC1CCN(c2nc(N(C)c3ccccc3)nc(N)c2[N+](=O)[O-])CC1 | inconclusive: 22.4 µM [inhibitor, partial curve]
COc1cccc(N/C(SCc2ccccc2C)=C(/C#N)C(=O)NCc2cccs2)c1 | inconclusive: 35.5 µM [inhibitor, single point]
O=C(Nc1ccc2c(c1)OCO2)C1CCN(C(=O)CSc2ncnc3ccccc23)CC1 | inconclusive: 31.6 µM [inhibitor, single point]
CNC(=S)N1N=C(c2ccc(C)cc2)CC1c1ccc(N(C)C)cc1 (stereo unspecified) | inconclusive: 10 µM [inhibitor, partial curve]
CCCP(=O)(CCC)CCP(=O)(c1ccccc1)c1ccccc1 | inconclusive: 0.794 µM [inhibitor, single point]
COc1ccc(C(=O)/C(=C/O)N=Nc2ccc(F)cc2)cc1 | inconclusive: 22.4 µM [inhibitor, single point]
Cc1cc(C(=O)NCCc2ccccc2)ccc1[N+](=O)[O-] | inconclusive: 6.31 µM [inhibitor, single point]
O=S(=O)([O-])CCC[n+]1c(/C=C\Nc2ccccc2)oc2ccc(-c3ccccc3)cc21 | inconclusive: 39.8 µM [inhibitor, single point]
Cc1cc(C)cc(C(=O)NCC(=O)OCC(=O)N2c3ccccc3NC(=O)C2(C)C)c1 | active: 17.8 µM
O=c1[nH]c(CN2CCN(Cc3ccc4c(c3)OCO4)CC2)nc2ccccc12 | inconclusive: 4.47 µM [inhibitor, single point]
COC(=O)c1cc(CC(=O)c2ccc(O)cc2O)c(C)o1 | inactive
O=C(NCc1cccnc1)Nc1cccc(NC(=O)NCc2cccnc2)c1 | inconclusive: 3.16 µM [inhibitor, single point]
Cc1nnc(N/N=C/c2c(O)n(-c3cccc(C(F)(F)F)c3)c(=O)c3ccccc23)[nH]c1=O | inconclusive: 28.2 µM [inhibitor, single point]

Compound | Potency
CCOC(=O)N1CCC(NC(=O)Cn2cc3c(n2)CCC(C)C3)CC1 (stereo unspecified) | inconclusive: 5.62 µM [inhibitor, single point]
O=C(COC(=O)Cn1cnc2ccccc21)Nc1ccc2c(c1)C(=O)c1ccccc1C2=O | inactive
O=C(Nc1ccccc1N1CCCC1)C1CCN(S(=O)(=O)c2ccccc2C(F)(F)F)CC1 | inconclusive: 0.708 µM [inhibitor, single point]
O=C(Oc1c(CN2CCOCC2)cc(Cl)c2cccnc12)c1ccccc1F | active: 14.1 µM
Cc1cc(C)c2sc(NNC(=O)c3ccc(S(=O)(=O)N4CCc5ccccc5C4)cc3)nc2c1 | inconclusive: 10 µM [inhibitor, partial curve]
COC(=O)C1=C(C)N(c2ccccc2)C(=S)NC1c1ccccc1C(F)(F)F (stereo unspecified) | inconclusive: 28.2 µM [inhibitor, single point]
O=C(CCc1nc2sc3c(c2c(=O)[nH]1)CCCC3)NCCc1ccccc1 | inconclusive: 35.5 µM [inhibitor, partial curve]
O=[N+]([O-])c1cc2cccnc2c2ncccc12 | inconclusive: 20 µM [inhibitor, partial curve]
Cc1ccc(S(=O)(=O)N2CC=C(C(=O)NCc3ccc(F)cc3)CC2)cc1 | inactive
CCOC(=O)Nc1ccc2c(COC(=O)CNS(=O)(=O)c3cccc(Br)c3)cc(=O)oc2c1 | inactive
O=C(CSc1ccccc1F)NCCCN1CCCC1=O | inactive
CCN(CC)S(=O)(=O)c1cccc(C(=O)N/N=C/c2ccc(O)c(O)c2O)c1 | inconclusive: 0.794 µM [inhibitor, full curve, poor fit]
O=C(c1coc(=O)c(Br)c1)N1CCOCC1 | active: 14.1 µM
Cc1sc2nc(CSC(C)C(=O)Nc3cc(S(C)(=O)=O)ccc3Cl)[nH]c(=O)c2c1C (stereo unspecified) | inconclusive: 25.1 µM [inhibitor, partial curve]
C=C(c1cccc2ccccc12)P(=O)(O)O | inconclusive: 39.8 µM [inhibitor, single point]
COc1cc(S(=O)(=O)N2CCN(Cc3ccccc3)CC2)ccc1Br | inactive
O=C(COc1ccccc1)NN1C(=O)CSC1=S | inactive
COc1ccc(C2=NN(C(=O)CN3CCCCC3)C(c3ccc(C)cc3)C2)cc1 (stereo unspecified) | inactive
O=C(O)c1cc(-c2cccs2)nn1-c1ccc(F)cc1 | inconclusive: 25.1 µM [inhibitor, single point]
CN(C)c1nc(N)nc(/C(C#N)=C/C2CC3C=CC2C3)n1 (stereo unspecified) | inconclusive: 31.6 µM [inhibitor, partial curve]
CC(Oc1ccccc1)C(=O)Nc1oc(-c2ccco2)c(-c2ccco2)c1C#N (stereo unspecified) | inconclusive: 22.4 µM [inhibitor, single point]
Cc1cccc(-n2cnc(C(=O)NNC(=S)Nc3ccc(Cl)cc3)c2)n1 | inconclusive: 20 µM [inhibitor, single point]
Cc1cc(C)c(S(=O)(=O)c2ccccc2)c(Cl)n1 | inconclusive: 6.31 µM [inhibitor, single point]

Reference: PubChem BioAssay AID485360 (National Center for Advancing Translational Sciences (NCATS), 2010)
